The supplement of paper PMC3334620
Over roughly 33,000 sequences, “E-score (-0.5 to 0.5)” has its median near -0.016; the highest 2% begin near 0.31. The list shows a part of the results.

The sequences below were run against Cst6 (UniProt P40535) (assay: PBM E-score (8-mer binding enrichment) (E-score (-0.5 to 0.5)); higher = stronger / more preferred TF binding; most listed sequences are background and not binding sites). Conditions: protein concentration: 200 nM; construct: GST-DNA-binding domain.
Outline: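 Bound GST-tagged yeast transcription factors, applied at about 100-200 nM to double-stranded universal all-10-mer Agilent arrays, were detected with fluorescent anti-GST. Scans were normalised with masliner. A modified Wilcoxon-Mann-Whitney statistic, the E-score, was assigned to each ungapped eight-base word pooled with its reverse complement by the Universal PBM Analysis Suite.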

Sequence | PBM E-score
CGGGTGAG | -0.198
ATTCGTTG | 0.0893
GATGGGAC | -0.153
GATGTAAC | 0.341
ATGGTCTG | -0.0481
CATTCGAA | 0.0397
ATGCCGTC | 0.323
GCTTAATA | 0.0836
AAACGGGC | -0.101
TCACTCAA | 0.0959
GCTTACCC | -0.292
ATATTTCG | 0.186
AAGTATGC | -0.0449
AAGGCAGC | -0.11
ACATATTG | 0.137
CACCCGGG | -0.278
CCAGAAAG | 0.0375
CGTCAACA | 0.407
AGCTTAGA | -0.00737
AGGTGATA | -0.138
CAAGAGTG | -0.0823
TACGAAGA | -0.034
AGCTTACT | -0.0615
CCTGCTTC | -0.196
CATATGCA | 0.212

Sequence | PBM E-score
GGAAGGCC | -0.136
GTGCAAAC | -0.0316
ACCCAAAG | 0.0358
GTGTAGCA | -0.208
CGGGAGCC | -0.17
CCTGTCCG | -0.153
GAAGTCAC | 0.0776
CTCTCAAG | -0.14
ATTGTGCA | -0.0257
ATCGACTG | -0.0918
TATTTACA | 0.156
CTCCCCCC | -0.319
AGCTCTTC | -0.0782
ATTCGGAG | -0.0899
CCTTGTAG | -0.126
CATAATGA | 0.258
GGGCCCGA | -0.182
CGATGGTC | -0.1
CAGCAACA | 0.18
ATCAATCG | 0.211
AGGCACCC | -0.203
CCGGGCAC | -0.164
GGGAAGCA | -0.193
CGCCAGCC | -0.193
ACACTGGC | -0.164

Sequence | PBM E-score
CGGCGGAC | -0.155
ACGCCCCA | 0.0306
CTTCTTGC | 0.125
CGCGGCCG | 0.0311
GTGCTTCA | -0.00155
AATGTACG | 0.00127
AAGACAAT | 0.155
CCTTCTAC | -0.175
AGTATAGA | 0.0483
ACAGTTCC | -0.129
ATCTCGGC | -0.21
GCCCATTA | -0.131
CAAAAAAC | 0.201
GACAAACC | -0.0663
ACAATAAG | 0.128
GCAACTGC | 0.0204
CCAGAGAA | 0.0435
ACTTGGGG | -0.174
AATGCCCA | -0.102
CGTTCCAG | -0.102
TACAGAGA | -0.0264
TAAACTAA | 0.247
CGAAGAAA | 0.0601
AGTGATCC | -0.125
CGTCTTCA | 0.00389

Sequence | PBM E-score
ACGGGTGA | 0.0387
GCCCACGC | -0.238
CATAATTC | 0.203
ACGAGTCA | -0.0366
AAATGTAC | 0.0197
GACGACTA | -0.0689
ACACTATC | 0.0871
TCACACCA | 0.183
CCTCTCCA | -0.382
CAGAATGC | -0.0407
AGCCGGTC | -0.193
GATCCACA | -0.098
AAATTCCG | 0.0499
TGCCGGAA | -0.0641
GCTGTTTA | 0.0917
GATATGCC | -0.0751
CGAGAACA | 0.00653
CCGTGGTC | -0.113
GGAAGCCA | -0.394
CCGCACCA | -0.0342
CCGAGCAA | -0.147
CAGATAGA | -0.139
CGTAGTGC | 0.0646
ATAGGCTC | -0.0383
CCAAGAGC | -0.16

Sequence | PBM E-score
CCGAAACG | -0.0965
CCGGGAGA | -0.288
CCCCAGTA | -0.279
GTCTTAAC | 0.14
CAATTTAC | 0.132
CCTCCCAC | -0.255
TAATGGTA | 0.0266
TAATTGCA | 0.166
ATACCGCC | -0.0536
ATCTGGCC | -0.115
GTCTTGTA | -0.0135
GTCTAGAC | -0.0977
ACGAGTTA | 0.0712
CCCCAAGA | -0.0387
GCAGCTTA | -0.106
CGCTATTC | 0.12
AATGCCTC | 0.117
CAGCCGTC | 0.0864
ATTGTATG | 0.0123
TAGTAACA | 0.153
AAATTGTA | 0.134
GAGACTTA | -0.132
AGCCATAA | 0.0412
AGACATCC | -0.211
CTCCATGA | 0.166

Sequence | PBM E-score
AAGCGTAA | 0.061
TCAAACGA | 0.153
GACATATA | 0.227
CATTTTAC | 0.273
ATTCATTC | 0.26
AGGCCCCT | -0.349
TACTGCGA | -0.0901
CACGGACA | -0.0605
CCACCCAC | 0.00112
AGTGAGGC | 0.0167
GCCTGCTA | -0.323
AGCACGAA | 0.0875
CTTATGCA | 0.0897
GTAAGTAC | 0.14
AGGTTCTC | -0.185
CTTCGGCA | -0.0407
ACCAAATC | 0.0665
AGATTACC | 0.144
CGTTCTGA | -0.0627
GCAGTTCA | 0.0321
AGAACTCG | -0.00043
CAGGTTTC | 0.0251
CCGGGTTA | -0.281
AAGACCGA | -0.0271
AGCGCTAT | 0.0975

Sequence | PBM E-score
GTGTGCCA | -0.0844
CTGTGAGA | -0.0662
AAGCGCTC | -0.0595
ATTCCTAC | 0.131
AAGTCAAT | 0.0535
ATTATCCG | 0.145
AGTCACGA | 0.0257
CGTTACTA | 0.0598
CCGGAGGC | -0.266
CTCTCACA | 0.064
CGCATGGC | 0.0284
GAAAGACA | 0.179
CGGCAATC | 0.0148
AGTATTTG | 0.0172
GATGACGC | 0.473
AGAGCAAC | -0.086
AACGTTAT | 0.138
ATTGCGGG | -0.0524
CCGGATCG | -0.134
ACGTAACT | 0.413
CTCATTCC | -0.0452
ACATACCA | -0.166
GGTCGGGA | -0.194
ACTGTACG | -0.0454
CAAGCCAG | -0.114

Sequence | PBM E-score
AGCCTATC | -0.0367
CAAATGGA | -0.00282
CCGTACAA | 0.0869
CGAGCCAG | -0.192
ATAACGTG | 0.213
ACACTGGT | -0.0535
AATCCACC | -0.121
CAGTTGCG | -0.0514
AAGCTAAA | 0.0432
ACAGTTTG | -0.0844
ATTTTGAG | 0.202
CGGTCACC | 0.0497
AGCGGGCA | -0.236
AACAGCTC | 0.0244
GCGCCCCA | 0.00687
AGGAAATG | 0.116
TAAGTAAA | 0.0797
AACCGCCT | -0.011
ACGATTAT | 0.106
AGCAGGTG | 0.188
ATATGAAG | 0.148
CACTAGCC | 0.0103
ATGTGCAA | 0.0873
CACAAAAA | 0.236
AAAGTTAG | 0.12

Sequence | PBM E-score
ATGTCGCC | 0.0795
CATACCAG | -0.0727
GCTGGTTA | 0.0697
AGAGTCCA | -0.0252
ATTCGGTG | 0.154
AAGCTACT | -0.0892
CTACCGGC | -0.217
ACCTTGCG | 0.117
CAAAGAAA | 0.106
TTCCGGAA | -0.201
GACTGACA | 0.077
GACTCTCC | -0.116
AAATCCGT | 0.235
GACAGAAC | 0.0521
CTGCAAGA | -0.0492
ATAACCAT | 0.014
ACCCCATG | -0.00368
GCTCCATA | 0.0655
CGTGCTCC | -0.15
ATTATCGG | -0.0321
GGGAGTCA | -0.153
ACCCCGGG | -0.128
ACCTCGCG | 0.0421
CTCTTTGA | 0.0383
ATCAATTG | 0.288

Sequence | PBM E-score
GCCACCCA | -0.358
ATGAAGGA | 0.0888
AACTCCTT | 0.0354
GAGTCATC | 0.116
CTGGATGC | -0.323
CCGTTGCA | -0.0788
ACGTGCAG | 0.0472
CAATTGAA | -0.0121
GTTATGAA | 0.117
ACCTACCG | -0.13
CGCTGAAG | -0.18
GTAAGCTA | 0.184
CAAACAAC | 0.145
ATAAACCC | 0.0869
ACTTCTGA | 0.105
ACTACCTC | 0.0105
CCCACACA | -0.194
ACGACCTG | -0.0974
TAAGCCGA | -0.00895
AAGTGAGC | -0.0648
GGGGATGA | -0.0642
ACTTACCC | -0.048
CCTGATGA | 0.205
AAGAATCG | 0.229
GACAACGC | 0.155

Sequence | PBM E-score
ACTTCGTA | -0.0634
AGCGTCAG | 0.177
AGCTCGCC | -0.189
GCATCACA | 0.222
GTCTTGCA | 0.00819
AATCTACT | 0.15
GCATCGAA | -0.0745
GCCTACAC | -0.0404
ATTCGTGG | -0.00517
CTGCGGGA | -0.321
AGACCGTG | -0.137
ACGTGAGC | -0.132
TAACATCA | 0.399
ACCCAGGG | -0.193
GAATCCGC | -0.262
TAGGACGA | -0.175
CCGACCGC | -0.328
ACGCGTCA | 0.381
GTCTGACA | 0.0375
ATGCATGA | 0.3
CTAGACTC | -0.329
AAGCCTAA | -0.0639
ATACCGTC | 0.104
AAGTCTCC | -0.136
CATGAGCA | -0.104

Sequence | PBM E-score
CAATTGTG | 0.13
CGCAGATC | -0.112
CGACTACG | -0.0794
CTGATACA | -0.0616
AGCCACAC | -0.0643
AAACTCAT | 0.188
CGGCGCCG | 0.384
TAAACTCA | 0.104
CGAGTCAA | 0.024
AACTCTCC | -0.0629
AGACATGC | -0.245
TGCGTGAA | 0.114
CGAAACAG | -0.0555
CAGCTGTC | -0.0675
AGGTGCAT | -0.0945
GCTACCAC | -0.124
AACACCGA | 0.0511
AAGGGGTA | -0.305
GCTGGTAA | -0.0409
CGGCATCA | 0.259
CTCGAGAA | -0.0292
GTAAAACA | -0.0042
AGTAGTTA | 0.0343
AGTCGGAT | -0.16
CGCTATGA | 0.0594

Sequence | PBM E-score
ATGCTAGG | -0.0393
CGGCGTCC | 0.113
CGAGCCCA | -0.158
AGTCGCCC | -0.116
ACCGCTAC | -0.299
AAGTCATT | 0.0478
CAATGAGC | -0.0115
TATAAAAA | 0.273
AGAGGTAG | -0.236
ATTGCGTA | 0.415
AAGTGGCC | -0.245
AAGTACTA | 0.195
AATGACGT | 0.495
ATAGCTAT | -0.0877
CATCCGCG | 0.151
TGATCCAA | 0.149
ACTATACA | 0.00344
CGAGGGTA | -0.225
TAATATGA | 0.305
CGTAATGA | 0.402
ATAAGGAT | 0.184
ACAGCTTA | -0.0136
CTTGAAGA | 0.0215
CTCAATAC | 0.109
GTTCATGA | 0.241

Sequence | PBM E-score
AGCGCATG | -0.197
CATTAGCG | -0.0563
AGCAGAAA | 0.123
ATGCTCAG | -0.0674
AGAGATGA | 0.196
GATTCCTA | -0.0381
ACTAGAAA | 0.18
AACCCAAC | -0.0123
TAGTCCCA | -0.259
ACTTTGAC | 0.0911
ATGAAGCA | -0.0983
CAACACCA | 0.00074
GGTGATGA | 0.362
GGAGATGA | 0.00363
AAACGAAC | 0.204
CGCTACCA | -0.113
TACGAGCA | -0.231
GTTGCTGA | 0.111
CCTTTTCC | -0.113
